Source: article PMC10150487, “m^6A readers ECT2/ECT3/ECT4 enhance mRNA stability through direct recruitment of the poly(A) binding proteins in Arabidopsis” (Genome Biology, 2023)
Results are given in words; binding and its absence hold for the method and conditions named. In cells and extracts the contact can be indirect. Some binding calls cover weakened binding; strength is not graded here. Tags and fused reporters may be left off the sequences shown.

T1: ECT2-nYFP (Arabidopsis thaliana) (UniProt Q9LJE5)
T1 sequence: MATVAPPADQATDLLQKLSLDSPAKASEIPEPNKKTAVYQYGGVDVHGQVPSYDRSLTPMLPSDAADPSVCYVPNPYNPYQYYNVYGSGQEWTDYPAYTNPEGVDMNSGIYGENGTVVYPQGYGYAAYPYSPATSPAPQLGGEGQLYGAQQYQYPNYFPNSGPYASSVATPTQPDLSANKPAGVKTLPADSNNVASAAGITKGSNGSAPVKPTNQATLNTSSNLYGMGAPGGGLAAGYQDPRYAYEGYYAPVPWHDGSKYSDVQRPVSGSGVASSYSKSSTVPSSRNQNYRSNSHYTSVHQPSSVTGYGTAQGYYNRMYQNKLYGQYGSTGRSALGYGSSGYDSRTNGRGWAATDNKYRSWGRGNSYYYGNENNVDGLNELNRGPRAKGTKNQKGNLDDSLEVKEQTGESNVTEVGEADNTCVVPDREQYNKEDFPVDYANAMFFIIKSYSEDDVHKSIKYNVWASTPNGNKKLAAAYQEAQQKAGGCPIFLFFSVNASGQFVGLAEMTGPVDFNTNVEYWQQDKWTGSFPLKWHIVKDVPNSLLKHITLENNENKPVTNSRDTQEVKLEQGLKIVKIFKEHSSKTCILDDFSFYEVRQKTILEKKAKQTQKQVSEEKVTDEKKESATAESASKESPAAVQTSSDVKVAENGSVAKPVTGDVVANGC

T2: ECT2, BiFC fusion used with PAB2 and PAB4 (Arabidopsis thaliana) (UniProt Q9LJE5)
T2 sequence: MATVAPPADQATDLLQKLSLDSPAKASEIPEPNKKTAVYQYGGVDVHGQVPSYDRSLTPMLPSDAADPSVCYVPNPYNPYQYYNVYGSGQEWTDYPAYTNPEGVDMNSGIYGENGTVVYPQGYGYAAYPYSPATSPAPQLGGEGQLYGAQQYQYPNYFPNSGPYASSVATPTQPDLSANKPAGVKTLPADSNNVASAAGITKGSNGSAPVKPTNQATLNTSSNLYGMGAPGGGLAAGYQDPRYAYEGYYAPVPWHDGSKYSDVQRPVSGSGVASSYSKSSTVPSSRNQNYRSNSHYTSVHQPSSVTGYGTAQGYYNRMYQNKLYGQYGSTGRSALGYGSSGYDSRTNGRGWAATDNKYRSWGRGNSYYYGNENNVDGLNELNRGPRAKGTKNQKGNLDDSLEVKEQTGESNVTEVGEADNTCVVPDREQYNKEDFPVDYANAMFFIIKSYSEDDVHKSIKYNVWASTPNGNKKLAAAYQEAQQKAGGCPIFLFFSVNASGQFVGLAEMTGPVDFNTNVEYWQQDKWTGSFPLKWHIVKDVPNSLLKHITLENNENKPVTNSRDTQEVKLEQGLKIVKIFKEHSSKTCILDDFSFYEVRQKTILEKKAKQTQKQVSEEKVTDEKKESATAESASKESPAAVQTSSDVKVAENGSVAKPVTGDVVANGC


How the values were obtained:
[1] = target: T1, ECT2-nYFP (Arabidopsis thaliana); assay: split reporter; BiFC with split YFP; pairs co-infiltrated with Agrobacterium GV3101 into 4-week-old Nicotiana benthamiana leaves, P19 co-expressed; YFP signal read 48-60 h after infiltration by confocal microscopy
[2] = target: T2, ECT2, BiFC fusion used with PAB2 and PAB4 (Arabidopsis thaliana); assay: as above

Row | binding [1] | binding [2] | Binder
1 | binds | – | ECT3-cYFP (protein, UniProt F4K1Z0 1-495) MANPDHVSDVLHNLSIDPTTKALAPDSETKLQGAYGGNGNDFLLNDELVEATKIGKPSLLSKDGGVTKDKGSNLKKLGYQSAAYNAKGSYGKGAYAYGYYPPAYQYPRHGYTGSYASGKTNLQYQYLTQQGRSAGNGQSYGGYMDNIYSNYGMCGPYTNGYGYGSYGYDSWKYMPNWYAVNNTYKPRNGYHGYGKENIEGLNEMNRGPRAKGFNSQDGSKVMAVSLKEQRVTETEKLSEDVSLLDPKDYNKIDFPETYTEAKFYVIKSYSEDDIHKSIKYSVWSSTPNGNKKLDASYNEAKQKSDGCPVFLLFSVNTSGQFVGLAEMVGPVDFNKTVEYWQQDKWIGCFPVKWHFVKDIPNSSLRHITLENNENKPVTNSRDTQEVKLEQGIKVIKIFKDHASKTCILDDFEFYENRQKIIQERKSKHLQIKKQTLVANADKGVMSKINLVKPQESTTASEDAAALGVAAEVTKESKVVKETELPVEKNAVATAC
2 | – | binds | PAB4, BiFC fusion (protein, UniProt O22173 1-662) MAQVQAPSSHSPPPPAVVNDGAATASATPGIGVGGGGDGVTHGALCSLYVGDLDFNVTDSQLYDYFTEVCQVVSVRVCRDAATNTSLGYGYVNYSNTDDAEKAMQKLNYSYLNGKMIRITYSSRDSSARRSGVGNLFVKNLDKSVDNKTLHEAFSGCGTIVSCKVATDHMGQSRGYGFVQFDTEDSAKNAIEKLNGKVLNDKQIFVGPFLRKEERESAADKMKFTNVYVKNLSEATTDDELKTTFGQYGSISSAVVMRDGDGKSRCFGFVNFENPEDAARAVEALNGKKFDDKEWYVGKAQKKSERELELSRRYEQGSSDGGNKFDGLNLYVKNLDDTVTDEKLRELFAEFGTITSCKVMRDPSGTSKGSGFVAFSAASEASRVLNEMNGKMVGGKPLYVALAQRKEERRAKLQAQFSQMRPAFIPGVGPRMPIFTGGAPGLGQQIFYGQGPPPIIPHQPGFGYQPQLVPGMRPAFFGGPMMQPGQQGPRPGGRRSGDGPMRHQHQQPMPYMQPQMMPRGRGYRYPSGGRNMPDGPMPGGMVPVAYDMNVMPYSQPMSAGQLATSLANATPAQQRTLLGESLYPLVDQIESEHAAKVTGMLLEMDQTEVLHLLESPEALNAKVSEALDVLRNVNQPSSQGSEGNKSGSPSDLLASLSINDHL
3 | – | binds | PAB2, BiFC fusion (protein, UniProt P42731 1-629) MAQVQLQGQTPNGSTAAVTSAPATSGGATATQFGNTSLYVGDLDFNVTDSQLFDAFGQMGTVVTVRVCRDLVTRRSLGYGYVNFTNPQDAARAIQELNYIPLYGKPIRVMYSHRDPSVRRSGAGNIFIKNLDESIDHKALHDTFSSFGNIVSCKVAVDSSGQSKGYGFVQYANEESAQKAIEKLNGMLLNDKQVYVGPFLRRQERDSTANKTKFTNVYVKNLAESTTDDDLKNAFGEYGKITSAVVMKDGEGKSKGFGFVNFENADDAARAVESLNGHKFDDKEWYVGRAQKKSERETELRVRYEQNLKEAADKFQSSNLYVKNLDPSISDEKLKEIFSPFGTVTSSKVMRDPNGTSKGSGFVAFATPEEATEAMSQLSGKMIESKPLYVAIAQRKEDRRVRLQAQFSQVRPVAMQPSVGPRMPVYPPGGPGIGQQMFYGQAPPAMIPPQPGYGYQQQLVPGMRPGGGPVPSFFMPMVQPQQQRPGGGRRPGGIQHSQQQNPMMQQQMHPRGRMFRYPQGRGGSGDVPPYDMGNNMPLTIGALASNLSNATPEQQRTMLGEVLYPLVEQVEAESAAKVTGMLLEMDQTEVLHLLESPEALKAKVAEAMDVLRSVAAGGATEQLASLNLS
